# In the BET-seq Pho4 binding data (Le et al. 2018):
# Some of the results follow. Values were computed here from the reads of four pooled replicates and scatter widely.
# Target: T1, Pho4 (S. cerevisiae) (UniProt P07270)
# T1 sequence: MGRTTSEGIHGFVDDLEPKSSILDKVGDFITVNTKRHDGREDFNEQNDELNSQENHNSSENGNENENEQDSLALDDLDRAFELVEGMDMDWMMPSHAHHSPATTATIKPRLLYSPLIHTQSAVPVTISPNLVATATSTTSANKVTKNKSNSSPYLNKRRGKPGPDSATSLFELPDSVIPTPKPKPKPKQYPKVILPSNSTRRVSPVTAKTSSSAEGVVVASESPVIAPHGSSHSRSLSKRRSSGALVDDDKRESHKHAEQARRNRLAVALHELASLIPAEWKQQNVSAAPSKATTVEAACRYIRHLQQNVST
# Experiment: relative binding free energy (BET-seq); higher = weaker binding
# Settings: reference: library average
row,Sequence,relative binding free energy [kcal/mol]
1,CGGGTCACGTGGATTT,0.15
2,AGGTGCACGTGTGTGT,0
3,TTGGTCACGTGTATGA,0.01
4,GGGTACACGTGATGTG,0.25
5,TTTGGCACGTGCGGTC,-0.13
6,GGATGCACGTGTGTTC,0.06
7,GGATACACGTGGGCGG,-0.01
8,CGCAACACGTGGGTGT,-0.08
9,TTGGGCACGTGTAGAA,-0.07
10,CGTGTCACGTGGGTGA,-0.09
11,ATTTGCACGTGGGGCA,-0.24
12,AATTTCACGTGAGTGT,0.27
13,AGGGCCACGTGGTTGT,-0.11
14,TGATTCACGTGGGCGA,0.24
15,AGCGTCACGTGGTTGT,-0.04
16,TGGTTCACGTGTAGTT,0.37
17,TTCGGCACGTGTGGTA,-0.06
18,CGTGGCACGTGATTGA,0
19,ATGAGCACGTGTTTCG,-0.06
20,GGTGCCACGTGATTTT,0.13
21,CTTATCACGTGGGAGG,0.07
22,TAGGACACGTGTTTGG,0.01
23,GAAGGCACGTGTGGCT,-0.09
24,GGATGCACGTGGATTT,-0.07
25,CCATTCACGTGTGGGG,0.1

row,Sequence,relative binding free energy [kcal/mol]
1,AATAACACGTGAGTTG,0.17
2,GTAGGCACGTGTATGA,-0.18
3,TTGGACACGTGGAGGT,0.02
4,TTATGCACGTGAGGCT,0.28
5,AGGGGCACGTGGAGGT,-0.06
6,AGTGTCACGTGGTTAG,0.04
7,TATTGCACGTGGACTG,0.08
8,AGTAACACGTGCTGTT,-0.12
9,AGTGGCACGTGTGAGG,0
10,CTGGTCACGTGTAAGT,0.12
11,ATTGGCACGTGTGCGC,-0.02
12,ATATTCACGTGGTTGA,0.16
13,CTTTGCACGTGGTATT,-0.08
14,GTGGACACGTGACTGG,0.08
15,TGCGTCACGTGGGCTG,-0.12
16,TATGTCACGTGGGCGC,-0.15
17,GCGAGCACGTGGAGTG,-0.12
18,AGCGGCACGTGACTGT,0.13
19,TTGAACACGTGAGTGT,0.25
20,ATATGCACGTGGGGTG,-0.25
21,TGCTCCACGTGTGGTG,0.09
22,TTGTGCACGTGATAGG,0
23,TTATTCACGTGTAGGA,0.26
24,TTGTTCACGTGGTACG,0.2
25,CGTGGCACGTGGGAGG,-0.2

row,Sequence,relative binding free energy [kcal/mol]
1,AGGGTCACGTGGCGAG,-0.01
2,AGTGTCACGTGGTTGT,0.02
3,TGACCCACGTGTGTGT,-0.07
4,GGTTTCACGTGGAGTG,0.24
5,CGTGTCACGTGTGATG,0.14
6,GCTGTCACGTGTTTAA,0.35
7,AATAACACGTGGATGT,0.12
8,ATCTGCACGTGTGGTT,0.06
9,TATGGCACGTGCGGGG,-0.26
10,CTATTCACGTGATGTG,0.3
11,TGTAACACGTGGATGA,0.09
12,GGTGTCACGTGACCTG,0.32
13,TATTGCACGTGCGGGC,-0.1
14,GTGGGCACGTGAGGTG,0.17
15,TTGTTCACGTGCTCTT,0.05
16,CGGGTCACGTGTGTGG,0.19
17,TTGCTCACGTGAGCGG,0.35
18,TCGGGCACGTGGTTAT,-0.17
19,TCGGACACGTGGTGTT,-0.06
20,TTATGCACGTGATGTG,0.1
21,TGTAGCACGTGTTGCG,-0.03
22,GGGTTCACGTGATTTA,0.39
23,TGATCCACGTGGTTAG,0.05
24,GTACTCACGTGGGTTT,0.14
25,GAAGTCACGTGATTAG,0.24

row,Sequence,relative binding free energy [kcal/mol]
1,GTCGTCACGTGTGGCA,0.24
2,CTTGACACGTGGAGTG,-0.05
3,CTTGGCACGTGCTGGT,-0.13
4,ATAGTCACGTGATATG,0.17
5,TGGTGCACGTGCTTAA,-0.09
6,TATAGCACGTGGAGTC,-0.11
7,CTGGGCACGTGTAGGT,-0.09
8,GGGTTCACGTGAAATC,0.55
9,ATTTTCACGTGAGCTA,0.32
10,GGCATCACGTGTGGTG,0.13
11,AGTTTCACGTGTGATG,0.38
12,GGGGTCACGTGTCGGT,0.23
13,ATGTTCACGTGTACAG,0.16
14,AGAGTCACGTGGGGGT,-0.02
15,GTTAGCACGTGAATAG,0.25
16,ATGGGCACGTGAGCGT,-0.09
17,TGCGGCACGTGGTTGA,-0.06
18,TTAAGCACGTGAGGAT,0.25
19,AGTATCACGTGTCGGT,0.16
20,TATGTCACGTGTGTTA,0.07
21,GTTTGCACGTGTAATA,0.19
22,CCGGTCACGTGTGAGT,0.36
23,GCGAGCACGTGTGTTA,0.02
24,GGCGGCACGTGACGGG,0.06
25,GTGCACACGTGGGTGC,-0.06

row,Sequence,relative binding free energy [kcal/mol]
1,TTTGACACGTGGATTA,0.02
2,CATTTCACGTGTAGGG,0.17
3,TTGTACACGTGTGTCA,0.09
4,CGTGGCACGTGTCAGT,-0.13
5,GATTGCACGTGGTGTA,0.05
6,GTTCACACGTGGGCTA,0.1
7,CTTTGCACGTGGGTAA,-0.22
8,AGTTCCACGTGGGGTA,-0.13
9,GATGTCACGTGGGTTT,0.1
10,TCGGTCACGTGTGCGT,-0.04
11,TAGTACACGTGTTTTA,0.08
12,ATTTACACGTGTAGCT,0.12
13,TGAATCACGTGACGTG,0.36
14,GCTATCACGTGGGTTT,0.1
15,TTAGGCACGTGGCGGT,-0.1
16,GCGTTCACGTGGTTTG,0.26
17,GTTTTCACGTGGGCAC,0.26
18,GGAGACACGTGGCGGA,-0.1
19,TGTCGCACGTGGTTTA,-0.13
20,GATTTCACGTGGGACG,0.25
21,GGATTCACGTGGGTTG,0.21
22,TCGGGCACGTGGCGTG,-0.36
23,GGGAGCACGTGGGCGT,-0.16
24,GGTGGCACGTGTCAGT,-0.05
25,GGGGTCACGTGTCTAT,0.27

row,Sequence,relative binding free energy [kcal/mol]
1,TGCTGCACGTGTAGAG,0.1
2,TTAGGCACGTGCTCGG,-0.21
3,TCGTTCACGTGCTAGG,0.28
4,TGCGTCACGTGTCGTG,-0.06
5,GATGCCACGTGTGTGT,0.04
6,CTAGTCACGTGTTGGG,0.09
7,AGTTGCACGTGTGAGT,0.1
8,ATTATCACGTGGTTAA,-0.01
9,AGTGTCACGTGACGGG,0.26
10,TGAGGCACGTGGGTTT,-0.11
11,TTTGCCACGTGGTTAG,-0.09
12,TCTGTCACGTGGTTGT,0.08
13,TCGGTCACGTGGTGAA,0.1
14,TGGGGCACGTGACTAT,0.11
15,GGTGTCACGTGGGCGT,-0.03
16,TCGTTCACGTGTATCG,0.3
17,GAACGCACGTGTTGTT,-0.01
18,GGCTGCACGTGGGTAA,-0.12
19,GTAGTCACGTGGGACG,0.07
20,GGGTGCACGTGCGTCT,-0.09
21,TGAAGCACGTGATAGG,-0.08
